# Measurements as given in publication PMC4336329 (PLoS ONE, 2015).
# The whole screen tested about 310,000 compounds, of which about 14,000 (4.5%) showed an effect of 50% or more. The effect is printed as a negative number. The list shows a part of the results.
# Molecular target: human ether-à-go-go-related gene (hERG) potassium channel (human, UniProt Q12809)
# Assay: primary screen, population patch clamp on CHO cells stably expressing hERG
# 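Also: peak tail current of the secondary pulse compared with the same well before compound.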
# Chain of human ether-à-go-go-related gene (hERG) potassium channel (Q12809 whole entry, looked up): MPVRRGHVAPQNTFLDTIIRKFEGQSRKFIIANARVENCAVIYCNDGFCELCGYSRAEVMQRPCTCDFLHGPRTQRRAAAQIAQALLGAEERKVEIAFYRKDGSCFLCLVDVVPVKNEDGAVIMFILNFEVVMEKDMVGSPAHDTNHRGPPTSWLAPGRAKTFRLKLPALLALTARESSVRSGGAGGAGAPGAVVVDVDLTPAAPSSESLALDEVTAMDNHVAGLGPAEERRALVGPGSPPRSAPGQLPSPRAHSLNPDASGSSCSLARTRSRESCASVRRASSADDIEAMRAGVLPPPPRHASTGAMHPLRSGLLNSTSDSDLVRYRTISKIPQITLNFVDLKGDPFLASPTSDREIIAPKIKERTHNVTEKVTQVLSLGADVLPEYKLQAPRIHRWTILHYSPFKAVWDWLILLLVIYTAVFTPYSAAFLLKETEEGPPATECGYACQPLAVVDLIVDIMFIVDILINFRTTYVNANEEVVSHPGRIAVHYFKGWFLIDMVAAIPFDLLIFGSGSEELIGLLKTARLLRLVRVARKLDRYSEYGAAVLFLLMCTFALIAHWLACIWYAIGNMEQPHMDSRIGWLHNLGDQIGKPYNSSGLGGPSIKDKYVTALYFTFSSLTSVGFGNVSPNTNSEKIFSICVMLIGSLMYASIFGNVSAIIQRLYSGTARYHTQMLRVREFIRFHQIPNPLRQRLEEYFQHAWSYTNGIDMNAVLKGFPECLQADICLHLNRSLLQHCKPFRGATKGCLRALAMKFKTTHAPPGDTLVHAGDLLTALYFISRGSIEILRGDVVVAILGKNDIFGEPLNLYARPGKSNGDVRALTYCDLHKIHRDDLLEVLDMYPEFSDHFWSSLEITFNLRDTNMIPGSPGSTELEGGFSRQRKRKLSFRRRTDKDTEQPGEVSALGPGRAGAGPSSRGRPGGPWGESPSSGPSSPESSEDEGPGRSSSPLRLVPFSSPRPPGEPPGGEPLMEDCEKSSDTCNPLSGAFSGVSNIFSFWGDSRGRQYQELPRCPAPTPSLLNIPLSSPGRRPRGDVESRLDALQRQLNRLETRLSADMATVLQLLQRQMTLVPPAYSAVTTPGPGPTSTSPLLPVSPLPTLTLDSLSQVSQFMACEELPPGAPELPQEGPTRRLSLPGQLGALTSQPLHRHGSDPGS
row,SMILES,"hERG current change (%, negative = inhibition) at 10uM"
1,COc1cc2c(cc1OC)CN(C(=O)CN1CCN(S(=O)(=O)c3ccccc3)CC1)CC2,-16.7%
2,O=C(COC(=O)c1ccc(NS(=O)(=O)c2cccs2)cc1O)NCc1ccccc1,4.53%
3,CCOC(=O)COn1c(=O)c(-c2ccc(OC)c(OC)c2)[n+]([O-])c2ccccc21,-11.9%
4,CCCn1c(SCC(=O)N(C)CC(=O)Nc2ccc(Cl)cc2)n[nH]c1=O,-2.98%
5,CCOC(=O)c1sc2nc(C3CC3)cc(-c3ccc(F)cc3)c2c1N,10.7%
6,COC(=O)CCCC1=CC2=C(c3ccccc3)C(=O)C(C)(OC(=O)C3CCCC3)C(=O)C2=CN1CC1CC1 (centres unmarked),-39.9%
7,CCC(=S)/C=C1\Sc2ccccc2N1CCCS(=O)(=O)[O-].[Na+],4.78%
8,COc1cccc(N2CC(C(=O)Oc3ccc4ccccc4c3)CC2=O)c1 (centres unmarked),-7.91%
9,CC(C)(C(=O)c1ccccc1)/[N+]([O-])=C/c1ccc(F)cc1,-15.3%
10,COc1ccc(C2CC(=O)N3CN(Cc4ccco4)CSC3=C2C#N)cc1 (centres unmarked),15.7%
11,CC(C)N(C)Cc1nnnn1CC(=O)N(C)Cc1cccc(Cl)c1,9.31%
12,CCSC1=N/C(=C\c2ccc3c(c2)OCO3)C(=O)S1,6.71%
13,Cc1cc(OC(C)C(=O)NCc2cccnc2)c2c3c(c(=O)oc2c1)CCC3 (centres unmarked),17.7%
14,O=c1cc(CSc2nnc(COc3ccccc3Cl)o2)nc2sccn12,-43.6%
15,C/C(=N\NC(=O)C1CC1)c1ccc(C)cc1C,3.18%
16,COc1ccc(NC(=S)Nc2cccc3ccccc23)cc1OC,10.4%
17,O=C(CSc1nnc2ccccn12)NNC(=O)c1ccc(Cl)cc1,7.36%
18,COc1ccc(NC(=O)c2csc(Cc3ccccc3)n2)cc1,-10.3%
19,Cc1ccc(C2CC(C(F)(F)F)n3nc(C(=O)NCCN4CCOCC4)cc3N2)cc1 (centres unmarked),-6.47%

row,SMILES,"hERG current change (%, negative = inhibition) at 10uM"
1,Cc1cc(C)nc(N2CCC(CNC(=O)CCc3ccccc3)CC2)n1,30%
2,CC(=O)N(Cc1ccccn1)Cc1ccco1,4.86%
3,O=C(Nc1nc2ccc3ccccc3c2s1)c1ccc(N2CCCCC2)c([N+](=O)[O-])c1,16.3%
4,O=C(Nc1nnc(SCc2ccccc2)s1)c1cccs1,13.1%
5,NC(=O)c1cnn(-c2ccc3ccccc3c2)c1N,13%
6,COC(=O)CNc1ccc2c(c1)OCO2,2.66%
7,O=P(OC1CCCCC1)(OC1CCCCC1)C(O)c1cccnc1 (centres unmarked),5.74%
8,CC1(C)C(=O)C2(CCCCC2)C(=O)OC1c1cccs1 (centres unmarked),10.8%
9,O=C(CCCN1C(=O)/C(=C/c2cccc(Br)c2)SC1=S)Nc1ccccn1,3.95%
10,Nc1nc(-c2ccc(Br)s2)c(Br)s1,12.2%
11,CC1Cc2ccccc2N1CC(=O)NC(=O)NC(C)(C)C (centres unmarked),-1.69%
12,CCCN(CCC)CCNC(=O)c1cc2c(C)nc3ccccc3c2o1,-29.7%
13,CC(C)c1ccccc1NC(=O)COC(=O)c1c2c(nc3ccccc13)CCN(Cc1ccccc1)C2,12.9%
14,COC(Cc1nnc(SC)n1-c1ccccc1)OC,-2.97%
15,Cc1cc(=O)oc2ccc(OCC(=O)N3CCC(C)CC3)cc12,-4.23%
16,Cc1cc(OC(=O)c2cc(C(F)(F)F)cc(C(F)(F)F)c2)c([N+](=O)[O-])c(=O)[nH]1,1.6%
17,O=C(CCNS(=O)(=O)c1ccccc1C(F)(F)F)N1CCN(c2ccccc2O)CC1,-26.9%
18,Cc1ccc(N2C(=O)CC(Sc3ncccn3)C2=O)cc1C (centres unmarked),11.6%
19,O=C(Nc1cccc(S(=O)(=O)N2CCOCC2)c1)c1cc2ccccc2o1,-9.76%

row,SMILES,"hERG current change (%, negative = inhibition) at 10uM"
1,COc1ccc(CNC(=O)N[C@@H](Cc2c[nH]c3ccccc23)C(=O)O)cc1,22.8%
2,COc1ccccc1-c1nnc2n1N=C(c1ccc(O)c(O)c1)CS2,-0.453%
3,Cc1ccccc1S(=O)(=O)NC1=NCCCCC1,-1.22%
4,CCOCCCNC(=O)c1ccc(NC(=O)C2=CSCCO2)cc1,15.4%
5,COc1ccc(NC(=S)N(Cc2cccnc2)Cc2ccco2)cc1,-24.5%
6,CCOc1cccc(C2C(C(=O)c3ccco3)=C(O)C(=O)N2Cc2ccncc2)c1 (centres unmarked),19.5%
7,CCN1CCN(c2ccc(N3CCN(S(=O)(=O)c4cc([N+](=O)[O-])ccc4C)CC3)nn2)CC1,-54.4%
8,Cc1cc(C)cc(C(=O)Nc2ccc(N3CCCC3)cc2)c1,39.7%
9,CCc1ccccc1N1C(=O)C(Cl)=C(N2CCOCC2)C1=O,14.7%
10,COCCn1c(SCc2cc(C(C)=O)ccc2OC)nc2cc(Cl)ccc2c1=O,-12.8%
11,Cc1ccccc1C(=O)NC1CCN(CC(=O)Nc2ccc3c(c2)OCO3)CC1,-47.3%
12,COc1ccc(N(C(=O)c2ccn[nH]2)C(C(=O)NC(C)(C)C)c2ccc(F)cc2)cc1 (centres unmarked),-0.51%
13,O=c1[nH]c(=S)n(Cc2ccc(F)cc2)c(O)c1C=NCc1cccnc1,-16.6%
14,O=C(CNc1cccc2ccccc12)N/N=C/c1cccc(Oc2ccccc2)c1,18.2%
15,COc1ccc(S(=O)(=O)NC2CCCCCC2)c(OC)c1,10.6%
16,O=C1CN(C(=O)COC(=O)CCSc2ccccc2Cl)c2ccccc2N1,-0.554%
17,COc1ccc(NC(=O)C2CC2)cc1S(=O)(=O)N1CCOCC1,-12.6%
18,CCC1(C)Cc2c(sc3nc4n(c(=O)c23)CCCS4)CO1 (centres unmarked),-0.139%
